The list shows a part of the results. These are enrichments in a pooled selection; single values are uncertain. Each score is taken over the longer molecules that contain the sequence shown.

The text below walks through data of the supplement of paper PMC6531468.

The experiment deals with IMP3 RRM1-2. In words: 6-mer SELEX enrichment z-score vs GST control; IMP3 is the RNA-binding protein IGF2BP3; higher = more enriched by binding. The settings on record: construct: RRM1-2 (1-163); SELEX round: R2. As to the method: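 SELEX-seq with GST-tagged IMP3 RRM1-2 (Met1-Asn163) and an N40 RNA pool, round 2. 6-mer enrichment z-score normalised to GST SELEX. RNA written as DNA (T = U).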
IMP3 RRM1-2, sequence (chain, as listed by the source): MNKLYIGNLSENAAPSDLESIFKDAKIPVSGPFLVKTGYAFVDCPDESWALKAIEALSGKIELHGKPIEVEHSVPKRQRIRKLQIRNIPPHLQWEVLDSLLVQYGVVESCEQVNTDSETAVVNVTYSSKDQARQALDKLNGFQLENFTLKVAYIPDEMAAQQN
In the case of TGACAC, the “6-mer SELEX enrichment z-score” value was 0.091.
The value for GAACAG was -0.775; that for TCACCT was 0.305; that for GACACC was -0.183.
For ACTAAC, the “6-mer SELEX enrichment z-score” value was found to be 0.091.
With GTCCAA, the “6-mer SELEX enrichment z-score” value was -0.377.
For GTGTCG, the “6-mer SELEX enrichment z-score” value worked out at 0.363.
For CGTGCT, the “6-mer SELEX enrichment z-score” value was 0.263.
As for TAGTTC, the “6-mer SELEX enrichment z-score” value was found to be 0.501.
Next, CCGTGG: -0.199; CTGTAC: -0.184.
As for TGCCCT, the “6-mer SELEX enrichment z-score” value was -0.11.
Next, TGTCGG: 0.568; GTAGTG: 0.287.
Next, GAACAA: -0.743; CGTCGT: 0.372; GGGTTT: 0.432.
The value for ACACGG was 0.432.
Consider ATGTTG, for which the “6-mer SELEX enrichment z-score” value was determined as 0.096.
Next, TAATCG: -0.187; GGAGTG: -0.132; CTATCA: 1.3.
Next, GGCATT: 0.711; CCCCGG: -0.811; TCACGA: 0.547.
CGGTGA: the “6-mer SELEX enrichment z-score” value was -0.328.
For the sequence TCCCCC, the “6-mer SELEX enrichment z-score” value was -0.58.
Regarding TAACTT, the “6-mer SELEX enrichment z-score” value is -0.083.
Next, GTATCG: 0.185; CTATTT: 0.297; TCTCTT: 0.585.
In the case of TGCACT, the “6-mer SELEX enrichment z-score” value stood at 0.27.
Consider TGCGTG, for which the “6-mer SELEX enrichment z-score” value was 0.11.
For AGACCC, the “6-mer SELEX enrichment z-score” value is -1.41.
Take GCTAAC: the “6-mer SELEX enrichment z-score” value was -0.116.
Regarding CTCAAC, the “6-mer SELEX enrichment z-score” value is 0.476.
CGAACA: the “6-mer SELEX enrichment z-score” value turned out to be 0.47.
In the case of CTGGTT, the “6-mer SELEX enrichment z-score” value was 0.338.
In the case of TATCTC, the “6-mer SELEX enrichment z-score” value was found to be 0.409.
The value for TTTGTG was 0.26.
